Sequences with one replicate were seen in a single cluster, so their values are uncertain.
Each sequence was assayed on ATP (assay: switch fluorescence ratio, 500 uM ATP over buffer (Cy3 cluster intensity, sum of 5 cycles each) (fold (ratio)); higher = stronger signal-on switching upon ATP binding; sequences stand for … in TCGTCGGCAGCGTCAGATGTGTATAAGAGACAGTTTTTTTTTTTTTTTTTTTTTTTTT…TC). Conditions: aptamer strand: ATP DNA aptamer (quencher-CACCTGGGGGAGTATTGCGGAGGAAGG + anchor), 100 nM annealed; ATP concentration: 500 uM; one replicate.
Summary of the method: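 Per cluster, summed Cy3 intensity from the target cycles was divided by that from the buffer cycles to give the fluorescence ratio, then averaged per switch-domain sequence. Clusters outside 100-1000 RFU were excluded. The Cy3-labelled switching-strand clusters, on a modified Illumina MiSeq flow-cell, were annealed to 100 nM quencher-labelled ATP aptamer and imaged in selection buffer, then after 15 min with 500 uM ATP at 22 °C, for five cycles with NaOH stripping and re-annealing between them.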
Sequence CTGTGCTCAA has a switch fluorescence ratio of 1.06.
TCGCCATCGG was tested, and the switch fluorescence ratio was 1.
Sequence GAAAGAGGTA has a switch fluorescence ratio of 0.963.
GAGGTGTCCA showed a switch fluorescence ratio of 1.01.
For CCTATAGTTT, the switch fluorescence ratio was 0.977.
For TTCATCGGT, the switch fluorescence ratio was 1.05.
Sequence CTCAAATTGC has a switch fluorescence ratio of 1.37.
For CAGAAGGAGT, the switch fluorescence ratio was 0.993.
Work on ATACTGATCT yielded a switch fluorescence ratio of 0.958.
AACCGTTGGA was tested, and the switch fluorescence ratio was 1.
AGGCATGTC was tested, and the switch fluorescence ratio was 0.963.
CTAACTCAG was tested, and the switch fluorescence ratio was 1.04.
Work on AACATGTGAG yielded a switch fluorescence ratio of 1.01.
For GGTGCATCTC, the switch fluorescence ratio was 1.04.
In the case of ATGGGTGTAG, the switch fluorescence ratio is reported as 1.01.
GGCAGCAAGA showed a switch fluorescence ratio of 2.02.
In the case of ATTTTGGCGC, the switch fluorescence ratio is reported as 0.981.
In the case of GGGGCCCAGC, the switch fluorescence ratio is reported as 0.961.
With AATTAAAGAC the switch fluorescence ratio was 1.05.
Sequence TAGACGTGCT has a switch fluorescence ratio of 1.11.
With TCGTCGAGTT the switch fluorescence ratio was 0.989.
With GTAACTAGTG the switch fluorescence ratio was 0.976.
Sequence GGCGCTCCGA has a switch fluorescence ratio of 1.04.
Work on GATAATCCGG yielded a switch fluorescence ratio of 1.02.
With TAACCAATAT the switch fluorescence ratio was 1.05.
In the case of CGAAAGTTCG, the switch fluorescence ratio is reported as 1.02.
ACTCACTGAA gave a switch fluorescence ratio of 1.2.
In the case of ACTCATGAAC, the switch fluorescence ratio is reported as 1.09.
AAGCTCAGCA gave a switch fluorescence ratio of 1.04.
With CGCACCCCCT the switch fluorescence ratio was 2.09.
TTCATATTGG was tested, and the switch fluorescence ratio was 0.982.
ACACCGAGAT gave a switch fluorescence ratio of 1.14.
TACTCTTTCA showed a switch fluorescence ratio of 1.01.
GACGAGCTTT showed a switch fluorescence ratio of 1.14.
With TGGGTCCGGA the switch fluorescence ratio was 1.06.
With GTGACGTGAC the switch fluorescence ratio was 1.25.
GGTGGAGATT gave a switch fluorescence ratio of 1.02.
With AGGCAGGTAT the switch fluorescence ratio was 1.
In the case of AGGGAAGGCC, the switch fluorescence ratio is reported as 1.01.
With GCCGATGGGG the switch fluorescence ratio was 1.05.
With ATCGTGGCAT the switch fluorescence ratio was 0.931.
GCTATCCTCG showed a switch fluorescence ratio of 1.05.
In the case of GCGAAAACGG, the switch fluorescence ratio is reported as 1.01.
CTATAATGCG gave a switch fluorescence ratio of 0.989.
Sequence CGATGACCCT has a switch fluorescence ratio of 1.05.
CTAACGCCGC showed a switch fluorescence ratio of 1.95.
ACGTGCAATA gave a switch fluorescence ratio of 5.69.
GTTGGACGGT showed a switch fluorescence ratio of 1.01.
TCGGCTTAC showed a switch fluorescence ratio of 1.1.
Work on CAACATTAGG yielded a switch fluorescence ratio of 1.
Sequence GCTGGCCTTC has a switch fluorescence ratio of 1.
ACTCACAATG was tested, and the switch fluorescence ratio was 1.39.
With TCTAGCCTTG the switch fluorescence ratio was 1.01.
Sequence AGAACCATGT has a switch fluorescence ratio of 1.09.
GCATGTGAAG gave a switch fluorescence ratio of 0.977.
With GCGAGCGGTC the switch fluorescence ratio was 1.07.
Work on CACATGCCAT yielded a switch fluorescence ratio of 1.02.
Work on ACGTGAGTTA yielded a switch fluorescence ratio of 0.931.
For GGATAGT, the switch fluorescence ratio was 0.985.
TATCGGGAGT showed a switch fluorescence ratio of 1.01.
Sequence TTTAATACA has a switch fluorescence ratio of 1.03.
AACGTGCGAA showed a switch fluorescence ratio of 1.01.
Work on GGAAAGTTTT yielded a switch fluorescence ratio of 0.972.
Work on CACTGTAGGA yielded a switch fluorescence ratio of 1.17.
TGGCACGGCA showed a switch fluorescence ratio of 1.
GCAAAAGATT was tested, and the switch fluorescence ratio was 1.
TAGTGCAC was tested, and the switch fluorescence ratio was 0.985.
Work on AAGTGCACAC yielded a switch fluorescence ratio of 1.01.
Work on TCCGGATGTT yielded a switch fluorescence ratio of 0.986.
For TTTAACGA, the switch fluorescence ratio was 1.01.
With TACTGAACCC the switch fluorescence ratio was 1.15.
GTCGTCTACC gave a switch fluorescence ratio of 1.02.
AAACGGAACG was tested, and the switch fluorescence ratio was 1.1.
AGGGGGAGAC showed a switch fluorescence ratio of 1.42.
TTGGTGCAGG showed a switch fluorescence ratio of 1.07.
Sequence ATTACGCTTG has a switch fluorescence ratio of 1.02.
With CCTAGCCCCG the switch fluorescence ratio was 1.08.
Sequence TCCCGCTAGG has a switch fluorescence ratio of 1.01.
AATCTTATCG was tested, and the switch fluorescence ratio was 0.953.
Work on GTTAGCAGTC yielded a switch fluorescence ratio of 1.04.
CCTAAGCGAG showed a switch fluorescence ratio of 1.9.
Work on ACAGATGTCC yielded a switch fluorescence ratio of 1.01.
TATGGGAATC showed a switch fluorescence ratio of 1.01.
With TACGTCAGCT the switch fluorescence ratio was 1.12.
With ATATGTTGGT the switch fluorescence ratio was 1.04.
Sequence CGAGAATCGG has a switch fluorescence ratio of 0.971.
In the case of ATCAAGCAAT, the switch fluorescence ratio is reported as 4.06.
Work on GATACGACTG yielded a switch fluorescence ratio of 1.08.
Work on CGGTTTGGT yielded a switch fluorescence ratio of 0.942.
For AACCATTTGA, the switch fluorescence ratio was 1.02.
For CCCGTTGACT, the switch fluorescence ratio was 1.11.
GCGGGTGCAG gave a switch fluorescence ratio of 0.986.
For AGCTGTGACA, the switch fluorescence ratio was 0.947.
AATGGGATCT gave a switch fluorescence ratio of 0.953.
TTAATAGGCA was tested, and the switch fluorescence ratio was 0.996.
GGCCCATTGA showed a switch fluorescence ratio of 1.02.
AGAAAAGATG showed a switch fluorescence ratio of 1.12.
CGATGGATT gave a switch fluorescence ratio of 0.973.
Sequence CTCGCGCTGG has a switch fluorescence ratio of 1.08.
Sequence GTACGAGGAC has a switch fluorescence ratio of 1.03.
GTTTTCTTAA gave a switch fluorescence ratio of 0.959.
With CGGTTGAAAG the switch fluorescence ratio was 0.966.
For CGTGCCTTGT, the switch fluorescence ratio was 0.994.
Sequence TCTGCATCAC has a switch fluorescence ratio of 3.36.
ATTACGATGA showed a switch fluorescence ratio of 1.
CAAACGCCGC showed a switch fluorescence ratio of 1.81.
AGTACGGTCC gave a switch fluorescence ratio of 1.04.
In the case of CTGTTGAGTC, the switch fluorescence ratio is reported as 1.02.
With TGGTGCTCGG the switch fluorescence ratio was 1.03.
With TATTAAAGG the switch fluorescence ratio was 1.05.
GCGACTGCAC was tested, and the switch fluorescence ratio was 0.993.
ACCAGCACCA was tested, and the switch fluorescence ratio was 1.16.
ACGCCCGTTT was tested, and the switch fluorescence ratio was 1.06.
With TAGATACTGT the switch fluorescence ratio was 1.01.
For CAAGCTGACC, the switch fluorescence ratio was 1.16.
For TGAAGTAACC, the switch fluorescence ratio was 1.08.
GGTCTTTTC was tested, and the switch fluorescence ratio was 0.936.
CTATAATTTC gave a switch fluorescence ratio of 1.01.
CTTCACATGA gave a switch fluorescence ratio of 1.
TCCGTGGGTC was tested, and the switch fluorescence ratio was 1.23.
With GGGTTGGTAC the switch fluorescence ratio was 1.03.
In the case of GAGCGGAGAA, the switch fluorescence ratio is reported as 1.02.
For AGTTTCGAGT, the switch fluorescence ratio was 1.01.
For TCAAATGAGT, the switch fluorescence ratio was 1.
Sequence ACAGAATAAC has a switch fluorescence ratio of 1.05.
CACTTTTAGT was tested, and the switch fluorescence ratio was 0.99.
Sequence ATATTTGACT has a switch fluorescence ratio of 1.
For ACTCGTTTTA, the switch fluorescence ratio was 0.974.
Work on ATAAGGATC yielded a switch fluorescence ratio of 1.03.
TACGAGGAAA showed a switch fluorescence ratio of 1.03.
With TGCAAACCAG the switch fluorescence ratio was 1.01.
For GTCTACAGTT, the switch fluorescence ratio was 0.929.
With TTTGAGGCAG the switch fluorescence ratio was 1.03.
In the case of CTAGGTGAGC, the switch fluorescence ratio is reported as 1.05.
CCTTAAAGAG gave a switch fluorescence ratio of 1.17.
For GTCCGACTGA, the switch fluorescence ratio was 0.992.
ACGTTGTATT gave a switch fluorescence ratio of 1.01.
GATGCTGTTG gave a switch fluorescence ratio of 0.997.
For AAGCGTTGGC, the switch fluorescence ratio was 1.02.
For GTATACCTGT, the switch fluorescence ratio was 1.03.
With GGCTCTGAGT the switch fluorescence ratio was 1.03.
With TAAAGTCCA the switch fluorescence ratio was 0.966.
GCATTACT gave a switch fluorescence ratio of 2.85.
For CCCCAACGC, the switch fluorescence ratio was 1.75.
For ATGCCGGACG, the switch fluorescence ratio was 0.988.
GGGGTCACAT gave a switch fluorescence ratio of 1.01.
In the case of ATTTCAGAG, the switch fluorescence ratio is reported as 1.
For CTAACGAACT, the switch fluorescence ratio was 1.32.
For TTATCCTAGC, the switch fluorescence ratio was 0.978.
With AGTTAGTTTC the switch fluorescence ratio was 0.95.
In the case of TAAAGACTTA, the switch fluorescence ratio is reported as 0.994.
CTATTCCG gave a switch fluorescence ratio of 1.01.
With CGGGAGGGTA the switch fluorescence ratio was 1.02.
CGGCTATG showed a switch fluorescence ratio of 1.01.
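Also: ATP exposure 15 min at 22 °C before imaging.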
